{"source": "PubChem BioAssay AID1346428", "about": "(National Center for Advancing Translational Sciences (NCATS), 2018)", "note": "The whole screen tested about 48,000 compounds, of which about 1,200 (2.5%) were called active. Inconclusive results (about 2%) are left out.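 How the source made its calls: active means activation of at least 60% and not above a set upper limit (about 1 call in 100 departs from these limits); inconclusive means activation of 40% to 60%, or above that upper limit; inactive means activation under 40%.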 The list shows a part of the results.", "data": [{"molecular_target": "Probable G-protein coupled receptor 32 (Homo sapiens) (UniProt O75388)", "sequence (O75388 whole entry, looked up)": "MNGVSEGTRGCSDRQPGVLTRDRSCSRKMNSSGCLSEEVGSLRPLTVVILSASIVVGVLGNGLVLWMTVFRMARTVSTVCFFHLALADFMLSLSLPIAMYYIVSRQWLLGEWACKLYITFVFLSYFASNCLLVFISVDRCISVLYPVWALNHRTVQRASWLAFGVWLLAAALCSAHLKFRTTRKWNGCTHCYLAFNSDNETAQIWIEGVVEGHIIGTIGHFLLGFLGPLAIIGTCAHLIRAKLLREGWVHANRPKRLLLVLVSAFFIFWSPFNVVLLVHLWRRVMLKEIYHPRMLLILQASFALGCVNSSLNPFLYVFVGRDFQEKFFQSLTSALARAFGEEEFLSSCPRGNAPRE", "experiment": "qHTS for Agonists of Human Resolvin D1 Receptor DRV1", "settings": "CHO-K1 GPR32 beta-arrestin PathHunter luminescence, 90 min; at 76.9 µM; stronger effect = higher value; zero percent set by DMSO-only wells", "how_it_was_run": "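Beta-arrestin recruitment read-out: luminescence from complemented beta-Gal in CHO-K1 GPR32 PathHunter cells, measured 1 h after detection reagent at ambient temperature following 90 min compound exposure at 37 °C; DMSO served as basal (EC0) control.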", "values": [{"smiles": "CCOC(=O)c1cnc(NCc2ccc(Cl)cc2)c2ccccc12", "activation": "inactive: -27.7%"}, {"smiles": "CCN(CC)C(=O)c1ccccc1NC(=O)c1cccc(S(=O)(=O)N2CCC(C)CC2)c1", "activation": "inactive: -2.27%"}, {"smiles": "O=C(NC1CCCCC1)/C(=C/c1ccc(Cl)cc1)NC(=O)c1ccccc1", "activation": "inactive: -12.9%"}, {"smiles": "N#Cc1cc2c(=O)n3ccccc3nc2n(-c2nnc(SCc3ccccc3)s2)c1=O", "activation": "inactive: 23.5%"}, {"smiles": "Cc1ccc(C(=O)CSc2nnc3ccc4ccccc4n23)cc1", "activation": "inactive: 4.73%"}, {"smiles": "COc1cccc(CNC(=O)c2ccc(CS(=O)Cc3ccc(Cl)cc3)o2)c1", "note": "(configuration not stated)", "activation": "inactive: -6.28%"}, {"smiles": "CCC(=O)N1c2ccc(S(=O)(=O)N3CCN(c4ccccc4Cl)CC3)cc2CC1C", "note": "(configuration not stated)", "activation": "inactive: -5.51%"}, {"smiles": "Cc1cccc(N(C)c2nc3ccc(C)cc3n3nnnc23)c1", "activation": "inactive: -23.9%"}, {"smiles": "CCOC(=O)C1CCCN(S(=O)(=O)c2cc(-c3cc(C)no3)ccc2C)C1", "note": "(configuration not stated)", "activation": "inactive: -10.3%"}, {"smiles": "Cc1ccc(NC(CNS(=O)(=O)c2ccc(Cl)cc2)c2ccccc2)cc1", "note": "(configuration not stated)", "activation": "inactive: 45.3%"}, {"smiles": "O=C1NC(=O)/C(=C/c2ccc(-c3ccc(F)cc3O)o2)S1", "activation": "active: 62.4%"}, {"smiles": "Cc1ccc(CNC(=O)C2CCN(c3ncnc4c3nc3n4CCCCC3)CC2)cc1", "activation": "inactive: -11.4%"}, {"smiles": "COC(=O)c1cc(S(N)(=O)=O)ccc1OC", "activation": "inactive: -3.21%"}, {"smiles": "COc1cc(NC(=O)COCc2cc(-c3ccc4c(c3)OCO4)on2)cc(OC)c1", "activation": "inactive: -11.8%"}, {"smiles": "CN(C)c1ccc(/C=C(\\C#N)c2nc(-c3ccc(Cl)c(Cl)c3)cs2)cc1", "activation": "inactive: 3.38%"}, {"smiles": "Cc1ccccc1-c1noc(-c2ccc(N3CCOCC3)c([N+](=O)[O-])c2)n1", "activation": "inactive: -9.09%"}, {"smiles": "Cn1c2ccccc2c2cnn(CC(=O)Nc3ccccc3C(F)(F)F)c(=O)c21", "activation": "inactive: 2.97%"}, {"smiles": "Cc1ccc(-n2c(=O)c3c(cnn3C)n(Cc3ccccc3F)c2=O)cc1", "activation": "inactive: -2%"}, {"smiles": "COc1cc(NC(=O)c2oc3c(c2C)-c2nn(Cc4cccc(Cl)c4)cc2CC3)cc(OC)c1", "activation": "inactive: -0.0585%"}, {"smiles": "CCOc1ccc(N(C(C)C(=O)Nc2cc(Cl)ccc2OC)S(C)(=O)=O)cc1", "note": "(configuration not stated)", "activation": "inactive: -13.8%"}, {"smiles": "CCN(CC)C(=O)c1sc2c(c1C)c(=O)n(-c1ccc(OC)cc1OC)c(=O)n2CC(=O)c1ccc(Cl)cc1", "activation": "inactive: -9.61%"}, {"smiles": "CCn1cc(S(=O)(=O)c2ccccc2)c(=O)c2cc(F)c(N3CCN(c4ccccc4)CC3)cc21", "activation": "inactive: -12.3%"}, {"smiles": "N#Cc1ccc(C(=O)Nc2ccc3c(c2)N(C2CCCC2)C(=O)c2ccccc2S3)cc1", "activation": "inactive: -4.98%"}, {"smiles": "CCc1nn(CC(=O)Nc2ccc(N(CC)CC)cc2C)c(=O)c2cc3sccc3n12", "activation": "inactive: -15.9%"}, {"smiles": "CC(C)Sc1ncc(Cl)c(C(=O)N(Cc2ccc(N(C)C)cc2)C2CCS(=O)(=O)C2)n1", "note": "(configuration not stated)", "activation": "inactive: -25.4%"}, {"smiles": "Cc1ccc(Cn2c(CN3CCC(C(=O)NCCc4ccccc4)CC3)cc3ccccc32)cc1", "activation": "inactive: -28%"}, {"smiles": "CCn1ccc2c(OCC(=O)NCc3ccc(F)cc3)cccc2c1=O", "activation": "inactive: 23.1%"}, {"smiles": "O=C(NCCc1nc2ccccc2n1Cc1ccc(Cl)cc1Cl)c1ccco1", "activation": "inactive: -25.7%"}, {"smiles": "Cc1nn(-c2ccc(N3CCCC3)nn2)c(C)c1CCC(=O)Nc1ccc(F)c(Cl)c1", "activation": "inactive: -6.68%"}, {"smiles": "Cc1ccc(-c2noc(-c3ccccc3NC(=O)C3CC(=O)N(c4ccccc4C)C3)n2)cc1", "note": "(configuration not stated)", "activation": "inactive: -9.69%"}, {"smiles": "CC(C)Cn1c(=O)c2ccccc2n2c(CCC(=O)NC(C)c3ccccc3)nnc12", "note": "(configuration not stated)", "activation": "inactive: 5.86%"}, {"smiles": "Cc1cc(C)c2nc(N(Cc3cccnc3)C(=O)c3cccs3)sc2c1", "activation": "inactive: -4.17%"}, {"smiles": "CCOc1ccc(C2C(C(=O)Nc3ccccc3)=C(C)Nc3nc(SCc4cc(C)ccc4C)nn32)cc1", "note": "(configuration not stated)", "activation": "inactive: -5.31%"}, {"smiles": "COC(=O)c1c(Cl)c(Cl)c(C(=O)OC)c(Cl)c1Cl", "activation": "inactive: -18.1%"}, {"smiles": "Cc1cc(C)c(S(=O)(=O)Nc2ccc(-c3ccc(N4CCCCCC4)nn3)cc2)c(C)c1", "activation": "inactive: -18.1%"}, {"smiles": "CCCc1cc(C(=O)Nc2c(C)nn(Cc3c(Cl)cccc3Cl)c2C)no1", "activation": "inactive: -0.626%"}, {"smiles": "Cn1cnnc1SCC(=O)Nc1ccc(C#N)cc1", "activation": "inactive: 5.72%"}, {"smiles": "COC(=O)c1ccc(OCC2c3cc(OC)c(OC)cc3CCN2C(=O)Cc2ccccc2)cc1", "note": "(configuration not stated)", "activation": "inactive: -12.1%"}, {"smiles": "CCc1ccccc1NC(=O)C1(C)Cc2ccccc2C(=O)O1", "note": "(configuration not stated)", "activation": "inactive: -2.31%"}, {"smiles": "COc1ccc(-c2cn3nc(N4CCCC(C(=O)Nc5cc(C)cc(C)c5)C4)sc3n2)cc1", "note": "(configuration not stated)", "activation": "inactive: -10.1%"}, {"smiles": "COc1ccccc1N1CCN(c2ncnc3c2cnn3-c2cccc(Cl)c2)CC1", "activation": "inactive: 0.474%"}, {"smiles": "CC(C)(C)C1CCc2c(sc(NC(=O)c3ccc(Cl)cc3)c2C(=O)NCc2ccco2)C1", "note": "(configuration not stated)", "activation": "inactive: 4.24%"}, {"smiles": "CCN(Cc1ccccc1)S(=O)(=O)c1cc(C(=O)Nc2cc(Cl)cc(Cl)c2)ccc1F", "activation": "inactive: -6.58%"}, {"smiles": "COc1ccc(-c2[nH]c(-c3cccc(OC)c3)nc2SCC(=O)NC2CCCC2)cc1", "activation": "inactive: -28.9%"}, {"smiles": "O=S(=O)(NCC(c1cccs1)S(=O)(=O)c1ccccc1)c1ccc(F)c(C(F)(F)F)c1", "note": "(configuration not stated)", "activation": "inactive: -14.7%"}, {"smiles": "C#C[C@]1(OC(C)=O)CC[C@H]2[C@@H]3CCC4=C[C@@H](OC(C)=O)CC[C@@H]4[C@H]3CC[C@@]21C", "activation": "inactive: 16.7%"}, {"smiles": "CCN(CC)S(=O)(=O)c1ccc(C(=O)N2CC(=O)Nc3ccc(F)cc3C2c2ccccc2)cc1", "note": "(configuration not stated)", "activation": "inactive: -18.4%"}, {"smiles": "O=C(C1CCN(S(=O)(=O)c2ccc(Br)s2)CC1)N1CCN(c2ccccc2)CC1", "activation": "inactive: 34.7%"}, {"smiles": "CC(C)(C)OC(=O)N1CCC(c2c(C(=O)NCCc3ccccc3)cnn2-c2ccc(F)cc2)CC1", "activation": "inactive: -24.5%"}, {"smiles": "COc1cc(NC(=O)c2c(C)oc3c2C2=NCCN2C=N3)cc(OC)c1OC", "activation": "inactive: -37.9%"}, {"smiles": "CC(=O)N1c2ccc(S(=O)(=O)NCC3CCC(C(=O)Nc4cc(C)ccc4C)CC3)cc2CC1C", "note": "(configuration not stated)", "activation": "inactive: 27.7%"}, {"smiles": "COc1ccc(CCN2C(=O)NC(NS(=O)(=O)c3ccc(NC(C)=O)cc3)(C(F)(F)F)C2=O)cc1OC", "note": "(configuration not stated)", "activation": "inactive: 0.3%"}]}]}
